Reference: the supplement of paper PMC12217912
This is one part of the list. Sequences were assembled here from the parent chain. Values near 0.05 are background.

B1: TEV protease; numbered along this chain (parent)
chain: MGESLFKGPRDYNPISSSICHLTNESDGHTTSLYGIGFGPFIITNKHLFRRNNGTLVVQSLHGVFKVKDTTTLQQHLVDGRDMIIIRMPKDFPPFPQKLKFREPQREERICLVTTNFQTKSMSSMVSDTSCTFPSGDGIFWKHWIQTKDGQCGSPLVSTRDGFIVGIHSASNFTNTNNYFTSVPKNFMELLTNQEAQQWVSGWRLNADSVLWGGHKVFMVKPEEPFQPVKEATQL

Variants of: B1
Experiment: raw area under fraction-flipped curve 0-4 h after induction (AUC4h, not background-subtracted), DNA-recorder readout of cleavage of the substrate (dimensionless); higher = more cleavage of the substrate by the protease variant
Settings: temperature: 34 °C; time window: 0-4 h after rhamnose induction
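Note: Bxb1 expression induced with 0.2% (w/v) L-rhamnose at OD600 near 0.5, cultures sampled hourly, flipped fraction per protease–substrate barcode pair counted by paired-end Illumina sequencing.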

| Variant | area with substrate CNLYFQS | area with substrate HNLYFQS | area with substrate INLYFQS | area with substrate KNLYFQS | area with substrate LNLYFQS | area with substrate PNLYFQS | area with substrate SNLYFQS | area with substrate TNLYFQS | area with substrate WNLYFQS | area with substrate YNLYFQS | area with substrate FNLYFQS | area with substrate NNLYFQS | area with substrate VNLYFQS | area with substrate GNLYFQS | area with substrate MNLYFQS | area with substrate QNLYFQS | area with substrate RNLYFQS |
| --- | --- | --- | --- | --- | --- | --- | --- | --- | --- | --- | --- | --- | --- | --- | --- | --- | --- |
| E224M | 0.067 | 0.063 | 0.0634 | 0.06 | 0.0601 | 0.0553 | 0.0678 | 0.0613 | 0.0736 | 0.0626 |  |  |  |  |  |  |  |
| E224P | 0.0781 | 0.0712 | 0.0468 | 0.0734 | 0.0759 | 0.056 | 0.0725 | 0.0668 | 0.0547 | 0.0759 | 0.0601 | 0.0786 | 0.0604 |  |  |  |  |
| P225R | 0.0648 | 0.04 | 0.0746 | 0.0631 | 0.0596 | 0.0674 | 0.0691 | 0.064 | 0.0586 | 0.0538 | 0.0544 |  | 0.079 | 0.0606 | 0.0816 | 0.0607 |  |
| P225T | 0.0765 | 0.046 | 0.0638 | 0.0611 |  | 0.0531 | 0.0647 | 0.0646 | 0.0628 |  |  |  | 0.0661 |  | 0.0685 |  |  |
| P225W | 0.0573 |  | 0.0667 | 0.0826 |  | 0.0642 | 0.0784 |  |  | 0.0764 |  | 0.0642 | 0.0599 | 0.0831 | 0.0795 |  |  |
| F226Y | 0.0581 | 0.0552 |  | 0.066 | 0.0645 |  | 0.0614 | 0.0663 | 0.0679 | 0.0669 |  |  |  | 0.0712 |  |  |  |
| Q227E | 0.0577 | 0.0528 | 0.0673 | 0.0672 | 0.0591 | 0.0842 | 0.0611 | 0.0674 | 0.0542 |  | 0.0619 |  | 0.0677 |  | 0.0744 |  |  |
| Q227M | 0.0682 | 0.0681 | 0.0592 |  | 0.0532 | 0.0531 | 0.0709 | 0.072 | 0.066 | 0.0769 | 0.0805 | 0.0613 |  | 0.083 |  |  |  |
| Q227P | 0.0552 |  |  | 0.0579 |  |  | 0.0575 | 0.0712 | 0.095 | 0.0781 |  |  |  | 0.0728 | 0.0635 |  | 0.0619 |
| P228N | 0.0654 | 0.0682 | 0.0693 |  | 0.0641 | 0.0613 | 0.0778 | 0.0612 |  | 0.0559 |  |  | 0.052 | 0.056 | 0.0593 |  |  |
| V229H | 0.0642 | 0.0575 | 0.0841 |  |  | 0.0794 | 0.0734 | 0.0662 | 0.0627 | 0.0728 |  |  | 0.0886 |  | 0.0822 |  | 0.0454 |
| V229L | 0.0687 | 0.0584 |  | 0.075 | 0.0722 | 0.0657 | 0.0511 | 0.0677 | 0.0696 | 0.0615 | 0.0604 | 0.0725 | 0.0694 |  | 0.0687 |  | 0.0639 |
| V229Y | 0.0682 | 0.078 |  | 0.0667 |  | 0.0674 | 0.0671 | 0.0605 | 0.0611 | 0.0625 | 0.0743 | 0.0552 | 0.065 | 0.067 | 0.0664 | 0.0899 |  |
